Reference: the RNAGym collection of RNA variant scans (doi:10.7554/elife.90254)
Read counts are not given, so values of variants with three or more changes are uncertain.

B1: OR4K15 (parent)
chain: GUUAACGGUCAUAGGCCAUGGAAACUAGGAGCACCAUUUCGCUGCCAGUGAAGAAAUGAACAAAGAAAAUCUGGGCCAGGCAGGCAUCAAAAGAAAUAGUCUUGCGCUCAACCAGAAAGUCUGUAAUCAUUUUAAGGGUA

Variants of: B1
Test: self-cleavage, relative activity (ratio to wild type); higher = more cleavage; in vitro, sequencing; the parent is a self-cleaving ribozyme

Row | Variant | self-cleavage
1 | U39C C128U U132C | 1.34
2 | U39A A52G A68G | 0.77
3 | U39C A64U A66G A82G | 1.09
4 | U38A U103A U108A | 0.02
5 | U38C U49A A55G A60G A94U A96U A110C U124C | 0.09
6 | U37C U49C A54G A86G | 1.28
7 | U39C A64G A94G | 1.39
8 | U38C G48A U57C A63G U72C U130G | 0.06
9 | U38C A78U A86U A116G | 0.34
10 | U38C A51G U124C | 1.31
11 | U38A A125G A126G | 0.29
12 | U38C A95G A96G | 1.72
13 | U39C A47G A51G A52G A66U U127C | 1.62
14 | U38C A54G A59G A67G A69G A117G U122A | 0.51
15 | U38A A60G U130C U131C | 1.17
16 | U38A U39C A52G A134U | 1.38
17 | U38C A82U A96G U122A | 0.14
18 | U38G A78G U127C | 0
19 | U39A U100C U127C | 1.8
20 | U39A A59G A116G | 0.32
21 | U39A A60G A96G G115A | 0.02
22 | U39C A52C U100C A134G | 1.58
23 | U39C A54U U131C | 2.34
24 | U39C U43C A66G U103G U130C | 0.01

Row | Variant | self-cleavage
25 | U38C A51G U87A | 1.64
26 | U39C U49C A51U A111G | 0.03
27 | U38C A54G A114C U120C U139A A140G | 0.01
28 | U38C A69U U139C | 1.58
29 | U38C U39C A51G A55G A56G | 1.38
30 | U39C A52G A56G A110G A129G | 0.07
31 | U37C U70C A135G | 1.16
32 | U39A A90G A110G A117G | 0.25
33 | U39C A60G A111G | 0.05
34 | U39A U72C A94U A114G A116C | 0.85
35 | U39C A78G U108G | 0.01
36 | U39C A96G A135G | 1.19
37 | U38G A78U C85U A114C | 0.02
38 | U39C A64U A90U | 1.46
39 | U38C A54G A68G A96G U103A U108A | 0.04
40 | U39A G106A U108C | 0
41 | U38C A52G A66G | 1.09
42 | U39C A68G A116G A126G | 0.25
43 | U39A A52G U132C | 1.6
44 | U38C A95G U102C A134G | 1.61
45 | U37C U43A U72A U127C U132C | 0.2
46 | U38C U39A A60G A90G | 0.48
47 | U38C A92U U133C | 1.83
48 | U38C A52U A126C U132C | 0.57

Row | Variant | self-cleavage
49 | U39C G53U A56G A60G U103C A118C | 0.3
50 | U39C A62U A68U A82G | 0.79
51 | U37C U130C A140G | 0.87
52 | U39A A91G A94G | 1.15
53 | U39A U49C U102C A118G | 1.55
54 | U38C A54G A68G | 1.52
55 | U38C U49C A82G | 0.27
56 | U38C U49C A82U | 0.27
57 | U37C U39A A56G A116U | 0.51
58 | U39A A47G A55G A96G A118G | 0.62
59 | U38C A55G A69G A78G A118G U139C A140G | 0.09
60 | U37C U49C U122A U131C | 0.86
61 | U38C A52U A59G A60G U97C A126G | 0.61
62 | U37C U49C A68G | 2.13
63 | U39C C76U A90G | 0.1
64 | U38A U43C U49G | 1.35
65 | U39C A56G A91G | 0.92
66 | U39C C77U A82G | 1.03
67 | U38C A68G A110G | 0.13
68 | U37C U49A A96G | 1.8
69 | U38C A54G A114U | 0.08
70 | U37C U39C A52G U57C A68G | 0.75
71 | U39A A92U U103A A134U | 0.64
72 | U37C U122C A129G | 0.78

Row | Variant | self-cleavage
73 | U39A A47G A68G U108A | 0.04
74 | U37C U87C A91G A96G | 0.96
75 | U39A U57C A118U U130C | 0.24
76 | U37C G58A U102C U108C U124C | 0.01
77 | U38G U43A A92G U120A A129G | 1.05
78 | U38C A51U A63G G115A U124A | 0.04
79 | U39C A95G U130C | 2.18
80 | U39A A62G A92G A111U | 0.07
81 | U39C A60G U132C | 1.18
82 | U38C A66G A67G A69U U122C | 1.56
83 | U38C U57C U122A | 1.42
84 | U39A A59G A90G A94G A95C | 0.36
85 | U38C A63G U108C | 0.01
86 | U37C G123A U130A | 0.34
87 | U39C G74U A91C U108C | 0.01
88 | U39C U43C A92G A94U | 0.95
89 | U38C A67G U100C | 2.74
90 | U39C A63G A126G | 1.18
91 | U38C A52G U102C U132G | 2.26
92 | U38C A47G A66G U120C | 0.93
93 | U38C U49G C77A A89G U124A U139A | 0.27
94 | U38A A78G U100A | 0.09
95 | U37C U97A A111G U124C | 0
96 | U39C A52G A60G A69G U139A | 1.35

Row | Variant | self-cleavage
97 | U39C A67G A96G | 1.27
98 | U38A U70C A92G A94G | 0.58
99 | U38C A68G G83A | 1.63
100 | U39A A68U U102C U120C | 2.22
101 | U39A A91G U100C | 2.55
102 | U38C A52G A98G A118U | 0.28
103 | U39C U49A A59G A91G U108C A129U | 0.01
104 | U37G U38C A135U | 1.36
105 | U37C U70C U87C U102A | 0.42
106 | U37C U87C A92G U103G | 0.03
107 | U38C A54G A95G U108A A116U | 0.01
108 | U39C U49C A51G A67U A95G A96G A116G | 0.46
109 | U38A A54G A91U A117G | 1.1
110 | U39C A66G U70C | 0.6
111 | U38C A68G A118C A135G G138U | 1.1
112 | U38C U43C A51G A78G A140G | 0.15
113 | U38C A47U A86G | 1.21
114 | U39A A67G G104U | 0.01
115 | U38C A52G U87G | 0.58
116 | U39A A94G U122C | 0.78
117 | U38C A62G G93U | 1.53
118 | U37C U108A U130C | 0
119 | U38C U43C A82G A95G | 0.37
120 | U38A A67G U70A | 1.36

Row | Variant | self-cleavage
121 | U39C A52G U131C | 1.58
122 | U38C A82G A90G U133A | 0.32
123 | U38C A47G A68G C81U A118G U127C A140G | 0.01
124 | U39C A62U A68G A96U | 1.16
125 | U38C A82U A96G | 0.3
126 | U38C U57C A82G | 0.6
127 | U39A A82G A92U | 0.56
128 | U39C U72A U132C | 0.13
129 | U39A A62G A66U | 1.33
130 | U37C U38C A51G A62G U122A | 1.8
131 | U37C U49C U127C | 0.67
132 | U39C A69G U72A | 0.64
133 | U38C A78G C113A A126G | 0
134 | U38A A47G A64G U100C | 2.47
135 | U39C A62G U72A | 0.23
136 | U38C A62G U72A | 0.13
137 | U38C A86G A96U | 2.04
138 | U38C U57C A68G A89G A140G | 1.54
139 | U39A A52G A56G | 0.71
140 | U39C U102C U122C U133C | 1.13
141 | U38C A78G U127A | 0.43
142 | U38C A69C U130C | 0.6
143 | U39C A66G A118G | 1.07
144 | U38C C85U A110G | 0.11

Row | Variant | self-cleavage
145 | U38C G65A A95G | 1.99
146 | U39C A86C A126G | 1.35
147 | U38C A68G U103C | 2
148 | U39C C45U A47U A62G A68G U122C | 0.76
149 | U39A U127C U139A | 1.23
150 | U38C U72C A126G A140G | 0.21
151 | U39C U70C U122C | 0.13
152 | U38C A67G A129G | 0.65
153 | U39C A52G A66G | 1.63
154 | U39C U49C A118U | 0.08
155 | U38C A62G A94G A117G | 1.81
156 | U39C A56G A91U A95U | 1.86
157 | U37C U72C A89G | 0.32
158 | U38C U39A A51G A62G C77U U130C | 0.66
159 | U38C A52G A69U A94G | 2.07
160 | U39C A60G A82G | 0.52
161 | U37C U39A A64C U108C | 0.04
162 | U38C A62G A78G | 0.25
163 | U39A A52G A60G A114U | 0.08
164 | U38C A51G A54G U102C | 1.93
165 | U38G A91G U130C | 0.19
166 | U39C A68G A89G | 1.51
167 | U38C A52G U57C | 0.55
